Experimental data taken from PubChem BioAssay AID1508623 (National Center for Advancing Translational Sciences (NCATS), 2021).
Among all 48,000 compounds or so, about 450 (0.94%) were called active. Roughly 19% stayed inconclusive and do not appear here. Calls come from the whole dose curve; as a rule, active = well fitted inhibition curve with a large enough effect; inconclusive = small, poorly fitted or top-dose-only effect; inactive = no such curve, though single readings can be large or run the other way. Some of the results follow.

experiment: Primary qHTS for Identification of Small Molecule Inhibitors of Huntingtin Promoter Activity; details: HEK293 HTT promoter firefly luciferase reporter (activity 0% = vehicle and -100% = no light), 24 h; series mostly up to 57.5 µM; activity change, negative = inhibition: at the top concentration; note: nearly all actives have a fitted effect of over 50% in size
Outline: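 Luminescence was read after Dual-Glo reagent and a 10 min room-temperature incubation. Values were normalized to vehicle (0% activity) and zero RLU (-100% activity). Reporter HEK293 cells had been exposed to compounds (up to 57.5 uM final) for 24 h.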
Potency is the fitted concentration of half-maximal effect.

Activity change, negative = inhibition, inactive:
O=C(CSc1ncc2c(n1)-c1ccccc1N(Cc1ccc(F)cc1)S2(=O)=O)NCc1ccccc1 -15.5%
Cc1cccc(CNC(=O)CCCN2C(=O)COc3ccc(C)cc32)c1 -11.7%
CCn1c(=O)c2cc(C(=O)N(C)c3cc(Cl)c(OC)cc3OC)sc2c2ccccc21 -3.09%
Cc1cn2c(=O)cc(COC(=O)c3cccc(NC(=O)COc4ccc(Cl)cc4)c3)nc2s1 -16.4%
COC(=O)c1c(NC(=O)COc2ccccc2Cl)sc2c1CCC(C(C)(C)C)C2 (stereo not given) 0.708%
Cc1ccc(CCNC(=O)c2cc3sccc3n2Cc2ccc(F)cc2)cc1 -22.2%
COC(=O)c1ccc(Cl)cc1NC(=O)N1CCC(CN2CCCC2)CC1 -17%
CC(C)(O)CCc1ccc(OCc2cc(-c3cccc(OC(F)F)c3)c3ncccc3c2)cc1 32.4%
Cc1ccc(C(=O)c2cn(Cc3ccccc3F)c3cc4c(cc3c2=O)OCO4)cc1 8.33%
N#C/C(=C\c1ccc(Br)cc1)c1nc(-c2cc3cc(Br)ccc3oc2=O)cs1 -5.36%
COc1cc(/C=C(\C#N)c2nc3ccc(C)cc3[nH]2)ccc1OC(C)C 11.3%
CC1(C)O[C@@H]2C[C@H]3[C@@H]4CCC5=CC(=O)C=C[C@]5(C)[C@@H]4[C@@H](O)C[C@]3(C)[C@]2(C(=O)CO)O1 -4.12%
CCc1ccc(S(=O)(=O)c2c[nH]c3cc(OC)c(OC)cc3c2=O)cc1 -21.3%
COc1ccc2cc3cc(C(=O)NCCc4ccccc4)sc3nc2c1Cl -13.2%
Cc1cnc(-c2cnc(NCCNc3ccc(C#N)cn3)nc2-c2ccc(Cl)cc2Cl)[nH]1 -22.4%
Cc1ccccc1NC(=O)Cn1c(=O)n(-c2ccc(CC(=O)NCC3CCCO3)cc2)c(=O)c2ccccc21 (stereo not given) -1.93%
COc1cccc(NC(=O)C(=O)NCC(c2ccc3c(c2)OCO3)N2CCOCC2)c1 (stereo not given) 92.9%
O=C(Cn1c(=O)n(-c2ccc(Cl)cc2)c(=O)c2sc3ccccc3c21)NC1CCCCC1 -13.8%
COc1ccc(-c2cc(C(F)(F)F)nc(NCc3ccccc3)n2)cc1 -27.1%
COc1cc(OC)c(NC(=O)CCn2cccn2)cc1Cl 10%
CN(Cc1ccccc1)C(C(=O)NC1CCCCC1)c1ccc(Cl)cc1 (stereo not given) -3.88%
CC(C=CC=C(C)C=CC1=C(C)CCCC1(C)C)=CC=CC=C(C)C=CC=C(C)C=CC1=C(C)CCCC1(C)C 6.84%
CCN(CCCNC(=O)CSc1cc(=O)n(C)c2cc(Cl)ccc12)c1cccc(C)c1 -30.8%
COc1cc(-c2noc(-c3ccc(N4CCOCC4)c([N+](=O)[O-])c3)n2)cc(OC)c1OC -12.2%
COc1cccc(-c2nc(CS(=O)(=O)CC(=O)Nc3cc(F)ccc3F)c(C)o2)c1 -28.7%
Cc1ccc(NC(=O)CSc2nc3ccccc3c3nc(CCn4cncc4C)nn23)c(C)c1 0%
Cc1ccc(OCC(=O)N(Cc2ccco2)Cc2ccco2)cc1 -10.3%
CCS(=O)(=O)c1nc2ccccc2n1CC(=O)Nc1ccccc1C(=O)OC 35.6% [at 11.5 µM]
CCc1ccc(C(=O)c2c(N)c(-c3nc(-c4ccc5c(c4)OCO5)cs3)c3ccccn23)cc1 -2.07%
Oc1c(C(c2ccc(Br)cc2)N2CCOCC2)sc2nc(-c3ccco3)nn12 (stereo not given) -16.2%
COc1ccc(CCNC(=O)CCn2c(=O)c3ccccc3n(Cc3c(C)cc(C)cc3C)c2=O)cc1OC -9.58%
COc1ccc2nc3sc(C(=O)N4CCN(c5ccccc5)CC4)cc3cc2c1 5.34%
CC(C)CCNC(=O)CN1C(=O)c2cccnc2Oc2ccccc21 3.05%
N#Cc1ccccc1S(=O)(=O)N1CCCC(c2nc3c(nnn3Cc3cccc(Cl)c3)c(=O)[nH]2)C1 (stereo not given) -11.3%
CN(C)c1ccc(C(CNC(=O)c2ccccc2F)N2CCc3ccccc32)cc1 (stereo not given) 55.3%
Cc1csc2nc(CCNS(=O)(=O)c3ccccc3)cn12 6.78%
Cc1nn(-c2ccccc2)c2c1N(CCCC(=O)NCc1ccc(Cl)cc1)C(=O)CS2 -1.24%
CN1CCN(C(=O)c2cnn(-c3cccc(Cl)c3)c2C2CCN(C(=O)OC(C)(C)C)CC2)CC1 5.47%
COc1cccc(CNC(=O)c2ccc3c(c2)N(Cc2ccc(C(F)(F)F)cc2)C(=O)c2ccccc2S3)c1OC -23.6%
CCOc1ccccc1CNC(=O)CN(c1ccc(C)cc1)S(=O)(=O)N(C)C 8.26%
Cc1c(NC(C)C)c(=O)n(-c2ccccc2)n1C 3.5%
COc1cc(C(=O)Nc2cccc(OCc3cc(=O)n4c(C)csc4n3)c2)cc(OC)c1OC 25.4%
Cc1nn2c(=O)cc(COC(=O)c3ccccc3NC(=O)C(C)C)nc2s1 -6.86%
COc1cccc(-n2cc(C(=O)Oc3ccc(F)cc3)c3ccccc3c2=O)c1 -27%
Cc1ccc(S(=O)(=O)c2c(Nc3ccccc3)sc(C(=O)c3ccc4c(c3)OCO4)c2N)cc1 -28.3%
Nc1nc(N)c(-c2ccccc2)s1 5.51%
Cc1c(Cl)ccc2sc(NC(=O)c3ccc(S(=O)(=O)N4CCCC4)cc3)nc12 -3.3%
COc1ccc(-c2nc(SCC(=O)NCC3CCCO3)c(-c3ccc(Cl)cc3)[nH]2)cc1 (stereo not given) -17.5%
CCCNC(=O)CCn1nc(-c2ccc(C)cc2)c2ccccc2c1=O -6.52%
Cc1ccc2ncc(C(=O)Nc3cccc(C(F)(F)F)c3)c(=O)n2c1 -2.63%
CCOc1ccc(CCNC(=O)c2cc3c(=O)n(C)c4ccccc4c3s2)cc1OCC -17.5%
COc1ccccc1NC(=O)c1sc2cccc(Cl)c2c1Cl 6.19%
CCCC12CN3CC(C)(CN(C1)C3c1ccc(CC)cc1)C2=O (stereo not given) -8.33%
O=C(CC(c1cccs1)N1Cc2ccccc2C1=O)Nc1ccccc1 (stereo not given) -22%
CCN1CCN(C(=O)Cn2ncc3c4ccccc4n(Cc4ccccc4F)c3c2=O)CC1 -9.58%
O=c1cc2nc(-c3ccccc3)nc(SCc3cccc(Br)c3)n2[nH]1 -19.3%
Cc1cccc(N2CCN(C(c3ccc(F)cc3)c3nnc(-c4ccccc4)o3)CC2)c1C (stereo not given) -22.8%
COc1cccc(N2CCN(C(=O)c3cnc4c(C)cccn4c3=O)CC2)c1 6.86%
Cc1ccccc1-c1nc(NC(=O)CSc2ncnc3sc4c(c23)CCCC4)ns1 -7.37%
Cc1ccc(Cl)cc1N1CCN(C(=O)C(C)n2ncn3cccc3c2=O)CC1 (stereo not given) -20.2%
CCCCN(CCCC)C(=O)c1cc2c(=O)n3ccccc3nc2s1 -12.6%
CCNC(=O)c1c(NC(=O)c2cc(=O)c3ccc(C)c(C)c3o2)sc2c1CCCC2 7.5%
Cc1nn(-c2ccccc2)c2c1cc1c(=O)[nH]c(=O)nc-1n2-c1cccc(C(F)(F)F)c1 -8.31%
COc1ccc(Nc2ncnc3c2cnn3C)c(OC)c1 -3.3%
Cc1ccc(-n2nc3c(=O)n(CCCC(=O)NCc4ccc(F)cc4)nc(C)c3c2C)cc1 -23.2%
O=C(CN1CCN(Cc2ccc(F)cc2)C1=O)NCc1ccccc1 -8.53%
Cc1ccc2c(c1)-c1onc(C(=O)N3CCN(c4cccc(C)c4C)CC3)c1CO2 -13.5%
C=Cc1ccc(Cn2c(C(=O)OC)cc3sc(C)cc32)cc1 15.6%
CC(=O)c1cccc(Nc2ncnc3c2cnn3-c2cccc(Cl)c2)c1 1.19%
COc1cccc(NC(=O)CC2Oc3ccccc3NC2=O)c1 (stereo not given) 4.48%
COc1cccc(NC(=O)c2oc3ccc(S(=O)(=O)N4CCOCC4)cc3c2C)c1 -26.7%
CC(C)OCCCNC(=O)CN1C(=O)CSc2ccc(S(=O)(=O)N3CCOCC3)cc21 -2.42%
CC(=O)Nc1c(C(=O)Nc2ccccc2F)oc2ccccc12 32.5%
CCc1ccc(Nc2nc3c(S(=O)(=O)c4cccc(Cl)c4)nnn3c3ccsc23)cc1 -16.6%
Nc1nc(F)nc2c1ncn2[C@@H]1O[C@H](COP(=O)(O)O)[C@@H](O)[C@H]1O 26.7%
COc1ccc(-n2cc(C(=O)Nc3ccccc3C#N)c3ccccc3c2=O)cc1 -10.2%
O=C(c1cccc([N+](=O)[O-])c1)N1CCN(CCc2ccncc2)CC1 -0.355%
CCOc1ccccc1NC(=O)c1nn(-c2ccc(OC)cc2)c(=O)c2c1c1ccccc1n2C -17.4%
COc1cccc(-n2cc(C(=O)Nc3ccccc3C(N)=O)c3ccccc3c2=O)c1 -2.9%
Cc1nc(SCCOc2ccc(Cl)cc2)[nH]c(=O)c1Cc1ccccc1 -14.1%
CCOc1ccc(NC(=O)Cn2c(=O)n(Cc3ccccc3)c(=O)c3c4c(sc32)CN(C(C)=O)CC4)cc1 -8.3%
Cc1ccc(NC(=O)CN2C(=O)COc3ccc(S(=O)(=O)N4CCOCC4)cc32)c(Cl)c1 2.63%
COc1ccccc1NC(=O)C1=C(C)Nc2ncnn2C1c1sccc1C (stereo not given) -8.37%
Cc1ccccc1CNC(=O)Cn1cc2c(n1)-c1c(oc(C(=O)N3CCCC3)c1C)CC2 -28%
COc1ccc(OC)c(CNC(=O)CCC(=O)N2Cc3ccccc3Oc3ncccc32)c1 0.0037%
COc1ccc2nc(NC(=O)c3nc(SCc4cccc(C)c4)ncc3Cl)sc2c1 -14.7%
COc1ccc(N2CC(NC(=O)C3CCCC3)CC2=O)cc1 (stereo not given) -11.5%
COc1ccc(N(CC(=O)N2CCN(c3ccc(F)cc3)CC2)S(=O)(=O)c2c(C)nn(C)c2C)cc1 -10.5%
Cc1cccc(C(=O)Nc2sc3c(c2C(=O)O)CCCC3)c1 -13.2%
Cc1cc(C)cc(NC(=O)CN(C)S(=O)(=O)c2ccc3c(c2)CCC(=O)N3)c1 -18.3%
COc1cccc(CNC(=O)CC(c2ccc(C)cc2)N2Cc3ccccc3C2=O)c1 (stereo not given) -11.8%
CCOC(=O)C(CC)Sc1nnc2[nH]c(=O)cc(C)n12 (stereo not given) -12.3%
Cc1ccc(CNC(=O)c2cnn(-c3ccc(F)cc3F)c2C2CCN(C(=O)OC(C)(C)C)CC2)cc1 -24.4%
CCCOc1ccc(C2C(=O)N(C3CCCCC3)CC(=O)N2CCC2=CCCCC2)cc1OC (stereo not given) 3.55%

Potency, active:
CC(C)(C)c1ccc(S(=O)(=O)N2CCC(c3ccncc3)CC2)cc1 15.8 µM
